According to the supplement of paper PMC4604168 (melanoma cell lines):
Some of the results follow. Most values come without repeats; read them as rough.

Legend:
Assay in all cases: cell count relative to DMSO control; melanoma cells; higher = more viable cells
Conditions in all cases: library dose: low library concentration; 72 h
[1] = system: MZ2-MEL
[2] = system: MeWo
[3] = system: RPMI7951
[4] = system: RVH-421
[5] = system: SkMel28
[6] = system: SkMel2
[7] = system: SkMel30
[8] = system: SkMel5
[9] = system: UACC257
[10] = system: UACC62
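Also: cell number obtained by counting DAPI-stained nuclei in high-throughput microscope images with image analysis software, screen run in 1,536-well plates.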

Row | Structure (SMILES) | cell count [1] [%] | cell count [2] [%] | cell count [3] [%] | cell count [4] [%] | cell count [5] [%] | cell count [6] [%] | cell count [7] [%] | cell count [8] [%] | cell count [9] [%] | cell count [10] [%]
1 | Clc1ccc(Nc2nnc(Cc3ccncc3)c3ccccc23)cc1 [vatalanib] + O=C(O)c1ccc(-c2c[nH]c3ncc(-c4ccccc4)cc23)cc1C1CCCC1 [GSK650394] (first compound 2 µM, partner dose 0.16 µM) | 99.5 | 72.9 | 81.5 | 89 | 79.1 | 93.4 | 108 | 83.9 | 78.1 | 101
2 | Clc1ccc(Nc2nnc(Cc3ccncc3)c3ccccc23)cc1 [vatalanib] + CN(NC(=O)CC(=O)NN(C)C(=S)c1ccccc1)C(=S)c1ccccc1 [STA4783] (first compound 2 µM, partner dose 0.006 µM) | 93.1 | 95.9 | 86.1 | 122 | 87.6 | 92.5 | 109 | 84.7 | 109 | 90.7
3 | Clc1ccc(Nc2nnc(Cc3ccncc3)c3ccccc23)cc1 [vatalanib] + COC(=O)c1sccc1S(=O)(=O)Nc1ccc(Nc2ccccc2)cc1OC [GSK0660] (first compound 2 µM, partner dose 1 µM) | 91.7 | 95.4 | 103 | 83.5 | 76 | 98.9 | 109 | 79.3 | 77.6 | 95.8
4 | Cn1c(Nc2ccc(C(F)(F)F)cc2)nc2cc(Oc3ccnc(-c4ncc(C(F)(F)F)[nH]4)c3)ccc21 + CO[C@@H]1[C@H](N(C)C(=O)c2ccccc2)C[C@H]2O[C@]1(C)n1c3ccccc3c3c4c(c5c6ccccc6n2c5c31)C(=O)NC4 [Midostaurin] (first compound 0.08 µM, partner dose 0.08 µM) | 80.2 | 57.5 | 63.1 | 62.2 | 63.4 | 76.9 | 71.2 | 65.4 | 50.6 | 67.7
5 | Clc1ccc(Nc2nnc(Cc3ccncc3)c3ccccc23)cc1 [vatalanib] + O=C(Nc1ccccc1)c1cc([N+](=O)[O-])ccc1Cl [GW9662] (first compound 2 µM, partner dose 2 µM) | 93.1 | 88.1 | 82 | 93.1 | 81.5 | 97.6 | 85.2 | 94 | 87.2 | 85.5
6 | OCc1c[nH]c2ccccc12 [Indole-3-carbinol] + COc1ccc2c(c1)CCC1C2CCC2(C)C(NCCCCCCN3C(=O)C=CC3=O)CCC12 [U73122] (first compound 0.8 µM, partner dose 0.4 µM) | 96.7 | 105 | 76.2 | 88.5 | 103 | 106 | 84.2 | 94.4 | 106 | 96.6
7 | OCc1c[nH]c2ccccc12 [Indole-3-carbinol] + C=CCn1c(=O)c2cnc(Nc3ccc(N4CCN(C)CC4)cc3)nc2n1-c1cccc(C(C)(C)O)n1 [MK1775] (first compound 0.8 µM, partner dose 0.02 µM) | 103 | 102 | 109 | 104 | 85.8 | 105 | 84.3 | 69.2 | 81.1 | 81.3
8 | Clc1ccc(Nc2nnc(Cc3ccncc3)c3ccccc23)cc1 [vatalanib] + Cn1cc(/C=C2\C(=O)Nc3cccnc32)c2ccccc21 [GW441756] (first compound 2 µM, partner dose 0.4 µM) | 91.8 | 79.6 | 78.6 | 85.4 | 103 | 89.1 | 103 | 75.2 | 90.7 | 88.8
9 | C#Cc1cccc(Nc2ncnc3cc(OCCOC)c(OCCOC)cc23)c1 [erlotinib] + C=CCn1c(=O)c2cnc(Nc3ccc(N4CCN(C)CC4)cc3)nc2n1-c1cccc(C(C)(C)O)n1 [MK1775] (first compound 0.8 µM, partner dose 0.02 µM) | 93.3 | 93.4 | 88.6 | 84.7 | 77 | 96.6 | 98.6 | 82.4 | 65.9 | 87.3
10 | O=C(CCCCCCC(=O)Nc1ccccc1)NO [vorinostat] + CC1(C)NC(=O)N(c2ccc([N+](=O)[O-])c(C(F)(F)F)c2)C1=O [nilutamide] (first compound 0.08 µM, partner dose 1 µM) | 111 | 97.9 | 112 | 99.6 | 92.3 | 105 | 111 | 92.3 | 94.9 | 110
11 | COCC[n+]1c2c(n(Cc3cnccn3)c1C)C(=O)c1ccccc1C2=O + Cc1ccc(NC(=O)c2cccc(N(C)C)c2)cc1NC(=O)c1ccc(O)cc1 [ZM336372] (first compound 0.0004 µM, partner dose 2 µM) | 33 | 110 | 72.7 | 94.8 | 103 | 82.8 | 89.2 | 59 | 91.2 | 95.3
12 | O=C(CCCCCCC(=O)Nc1ccccc1)NO [vorinostat] + NCC(=O)Nc1ccc(-n2nc(C(F)(F)F)cc2-c2ccc3c(ccc4ccccc43)c2)cc1 [OSU03012] (first compound 0.08 µM, partner dose 1 µM) | 91.3 | 56.5 | 107 | 109 | 89 | 65 | 54.3 | 88.2 | 88.7 | 89.8
13 | Clc1ccc(Nc2nnc(Cc3ccncc3)c3ccccc23)cc1 [vatalanib] + OCCn1cc(-c2cnc3nnn(Cc4ccc5ncccc5c4)c3n2)cn1 [PF04217903] (first compound 2 µM, partner dose 1 µM) | 96.5 | 91.7 | 102 | 95.9 | 94.1 | 89.3 | 109 | 85.4 | 92.7 | 97.6
14 | Clc1ccc(Nc2nnc(Cc3ccncc3)c3ccccc23)cc1 [vatalanib] + CCc1ccc(CCOc2ccc(CC3SC(=O)NC3=O)cc2)nc1 [pioglitazone] (first compound 2 µM, partner dose 2 µM) | 91.9 | 86.6 | 98.3 | 89.9 | 106 | 95.4 | 99.1 | 86.6 | 93.9 | 109
15 | Cn1c(Nc2ccc(C(F)(F)F)cc2)nc2cc(Oc3ccnc(-c4ncc(C(F)(F)F)[nH]4)c3)ccc21 + O=C(CCCCCCC(=O)Nc1ccccc1)NO [vorinostat] (first compound 0.08 µM, partner dose 0.08 µM) | 65.6 | 65.5 | 55.1 | 73.2 | 55.9 | 66.2 | 49.6 | 70.7 | 46.4 | 48.3
16 | COCC[n+]1c2c(n(Cc3cnccn3)c1C)C(=O)c1ccccc1C2=O + O=C(CCCCCCC(=O)Nc1ccccc1)NO [vorinostat] (first compound 0.0004 µM, partner dose 0.08 µM) | 45.2 | 86.5 | 83.6 | 81.6 | 83.3 | 85.3 | 101 | 69.3 | 67.1 | 96.5
17 | Clc1ccc(Nc2nnc(Cc3ccncc3)c3ccccc23)cc1 [vatalanib] + C[C@@H]1CCN(C(=O)CC#N)C[C@@H]1N(C)c1ncnc2[nH]ccc12 [CP690550] (first compound 2 µM, partner dose 1 µM) | 97.4 | 93.4 | 83.8 | 108 | 101 | 97.5 | 99.1 | 90 | 93.4 | 92.3
18 | Clc1ccc(Nc2nnc(Cc3ccncc3)c3ccccc23)cc1 [vatalanib] + Cc1cc([N+](=O)[O-])ccc1NS(=O)(=O)c1cc(Cl)ccc1Cl [FH535] (first compound 2 µM, partner dose 1 µM) | 91.4 | 89.2 | 90.2 | 65.4 | 90.8 | 105 | 89.1 | 76.5 | 88.7 | 98.6
19 | Cn1c(Nc2ccc(C(F)(F)F)cc2)nc2cc(Oc3ccnc(-c4ncc(C(F)(F)F)[nH]4)c3)ccc21 + Cc1cc(N2CCOCC2)cc2[nH]c(-c3c(NC[C@@H](O)c4cccc(Cl)c4)cc[nH]c3=O)nc12 [BMS536924] (first compound 0.08 µM, partner dose 0.2 µM) | 69.5 | 57.1 | 70.1 | 54.2 | 51 | 60.5 | 47 | 55.4 | 40.7 | 55.1
20 | OCc1c[nH]c2ccccc12 [Indole-3-carbinol] + N#Cc1c(O)c2c(-c3ccc(-c4ccccc4O)cc3)csc2[nH]c1=O [A769662] (first compound 0.8 µM, partner dose 2 µM) | 95.5 | 113 | 119 | 105 | 106 | 118 | 94.4 | 108 | 117 | 95
21 | OCc1c[nH]c2ccccc12 [Indole-3-carbinol] + COc1cc(N2CCC(N3CCN(C)CC3)CC2)ccc1Nc1ncc(Cl)c(Nc2ccccc2S(=O)(=O)C(C)C)n1 [NVP-TAE684] (first compound 0.8 µM, partner dose 0.08 µM) | 93.9 | 89.9 | 82.2 | 101 | 85.5 | 88.9 | 86.1 | 89.8 | 87.2 | 99.8
